# Reference: PubChem BioAssay AID504332 (National Center for Advancing Translational Sciences (NCATS), 2011)
# About 31,000 (8.9%) of roughly 350,000 compounds were called active. The shares of active, inactive and inconclusive entries below differ from those in the screen. Calls follow the shape of the dose curve; as a rule, active = well fitted inhibition curve with a large enough effect; inconclusive = small, poorly fitted or top-dose-only effect; inactive = no such curve, though single readings can be large or run the other way. A potency beside an inconclusive call is a rough fit, not a confirmed value.
# Molecular target: Histone-lysine N-methyltransferase EHMT2 (Homo sapiens) (UniProt Q96KQ7)
# Assay: qHTS Assay for Inhibitors of Histone Lysine Methyltransferase G9a; also: nearly all actives have a fitted effect of over 75% in size
# Conditions: G9a H3K9 monomethylation, AlphaScreen, 2 h; activity, negative = inhibition: at 59 µM (top of the series) unless noted
# Outline: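 G9a (20 nM) preincubated 15 min RT with compounds, then 500 nM biotinylated H3K9 peptide and 20 uM SAM added; 2 h RT reaction. Monomethyl-H3K9 product detected by AlphaScreen with anti-H3K9me1 antibody, streptavidin donor and anti-rabbit IgG acceptor beads.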
# % is scaled to controls: 0 for no effect and ±100 for the full control effect; potency is read from the fitted curve at half-maximal effect; tags tell the direction and shape of the fitted curve.
# Sequence of UniProt Q96KQ7 (Q96KQ7 whole entry, looked up): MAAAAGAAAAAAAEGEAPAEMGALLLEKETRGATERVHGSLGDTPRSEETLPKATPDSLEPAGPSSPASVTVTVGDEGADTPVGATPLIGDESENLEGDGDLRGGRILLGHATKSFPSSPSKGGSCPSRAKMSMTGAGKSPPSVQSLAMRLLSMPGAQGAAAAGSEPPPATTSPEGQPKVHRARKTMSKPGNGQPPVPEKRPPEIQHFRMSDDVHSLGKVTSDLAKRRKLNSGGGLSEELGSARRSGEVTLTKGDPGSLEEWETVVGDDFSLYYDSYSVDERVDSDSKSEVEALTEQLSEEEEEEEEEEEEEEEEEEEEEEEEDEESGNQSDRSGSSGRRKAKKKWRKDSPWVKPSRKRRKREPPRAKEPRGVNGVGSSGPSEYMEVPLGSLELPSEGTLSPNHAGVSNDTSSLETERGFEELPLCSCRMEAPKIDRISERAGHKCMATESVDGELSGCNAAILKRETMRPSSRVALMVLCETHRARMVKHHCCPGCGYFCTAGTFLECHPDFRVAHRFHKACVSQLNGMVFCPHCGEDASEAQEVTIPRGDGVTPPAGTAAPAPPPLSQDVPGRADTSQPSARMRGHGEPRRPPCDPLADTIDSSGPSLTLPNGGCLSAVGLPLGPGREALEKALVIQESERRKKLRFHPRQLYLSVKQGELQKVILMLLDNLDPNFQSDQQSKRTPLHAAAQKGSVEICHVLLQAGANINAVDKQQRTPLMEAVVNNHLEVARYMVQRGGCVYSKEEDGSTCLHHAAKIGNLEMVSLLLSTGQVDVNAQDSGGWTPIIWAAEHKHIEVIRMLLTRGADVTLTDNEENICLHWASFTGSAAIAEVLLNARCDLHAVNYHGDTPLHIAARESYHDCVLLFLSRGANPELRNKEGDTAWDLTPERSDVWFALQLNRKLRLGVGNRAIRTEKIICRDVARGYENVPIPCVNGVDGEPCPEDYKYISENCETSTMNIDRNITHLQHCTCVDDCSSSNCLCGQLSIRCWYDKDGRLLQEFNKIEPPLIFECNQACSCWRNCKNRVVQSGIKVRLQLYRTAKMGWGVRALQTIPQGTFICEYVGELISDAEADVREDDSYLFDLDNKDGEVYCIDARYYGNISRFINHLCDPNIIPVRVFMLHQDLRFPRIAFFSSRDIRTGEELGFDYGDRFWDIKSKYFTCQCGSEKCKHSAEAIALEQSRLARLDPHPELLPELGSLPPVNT
SMILES,Potency,"activity, negative = inhibition"
COc1ccc(CNC(=O)CCS(=O)(=O)c2cc3c4c(c2)CCN4C(=O)CC3)cc1OC,"inconclusive: 31.6 µM [inhibitor, single point]",–
CN1c2ccccc2C(C)(C)[C@]12C=Cc1cc(O)ccc1O2,"inconclusive: 3.16 µM [inhibitor, partial curve, poor fit]",–
CC(=O)Nc1ccc(SC[C@H](CC(C)C)N2CCN(CC(C)C)CCC2=O)cc1,"inconclusive: 11.2 µM [inhibitor, single point]",–
COc1ccc(NC(=O)N2CCC3(CC2)CCN(C(=O)c2cccn2C)CC3)cc1,–,inactive: -6.02% [at 12.7 µM]
C=CCOC(=O)C1=C(C)Nc2nnnn2C1c1cccs1 (stereo not given),inactive,–
CCc1nnc(NC(=O)CN2CCN(Cc3ccc(C)cc3)CC2)s1,inactive,–
CC(=O)c1cccc(NC(=O)N2CCCC2C(=O)Nc2ccc3c(c2)OCO3)c1 (stereo not given),inactive,–
O=C(Nc1ccc(OCC(=O)N2CCOCC2)cc1)Nc1cccc(Cl)c1,"inconclusive: 28.2 µM [inhibitor, full curve]",–
CC(C)c1ccc(NC2CCCN(C(=O)c3cc(C(C)C)nc(N)n3)C2)cc1 (stereo not given),"inconclusive: 79.4 µM [inhibitor, single point]",–
Oc1ccccc1-c1nc2c3ccccc3c3ccccc3c2[nH]1,inactive,–
CC(=O)/C(C)=N/O,"inconclusive: 0.597 µM [inhibitor, full curve, poor fit]",–
O=C(CSc1nc2ccccc2n1S(=O)(=O)c1ccccc1)N1CCCC1,active: 50.1 µM,–
O=C(CC(c1ccccc1)c1ccco1)N1CCOCC1 (stereo not given),"inconclusive: 31.6 µM [inhibitor, single point]",–
COc1ccc(NC(=O)CN2CCN(Cc3ccc4c(c3)OCO4)CC2)cc1OC,"inconclusive: 6.31 µM [inhibitor, single point]",–
Cc1cc(C(=O)N2CCN(c3ccc([N+](=O)[O-])cc3)CC2)n[nH]1,inactive,–
COC(=O)c1sc(NC(=O)Cc2cccs2)nc1C,active: 28.2 µM,–
Oc1ccc(/C=N/NC(=S)NCCN2CCOCC2)c(O)c1,"inconclusive: 79.4 µM [inhibitor, single point]",–
CCCCn1c(N)c(N(CCOC)C(=O)c2ccc(C)o2)c(=O)[nH]c1=O,"inconclusive: 4.47 µM [inhibitor, partial curve, poor fit]",–
C=CCNC(=S)Nc1sc2c(c1C(=O)OCC)CCN(C(=O)OCC)C2,active: 12.6 µM,–
CCc1nn2c(=O)c(S(=O)(=O)Nc3ccc(C)cc3C)c(C)nc2s1,"inconclusive: 20 µM [inhibitor, single point]",–
